B1: chr12:72996743:72996744:+_ENSMUSG00000034574_ENSMUST00000085299|mus_mus|motif|central (ssRNA)
RNA: GGGAGUUCUACAGUCCGACGAUCAUAAAUGAAAUCCCCCGGCCGCCUCUCUUCCGUGGGGCCAUGGUUGAAUUCUCUCCGGUUUCUUGAUAUUUCUAUACUCUACUGGCCCCGGAGCUCCGGGAAGCAGCAGGAGGGCGCGCCCAACAGAGGAUUGAGCAUCA
B2: chr11:4127340:4127341:+_ENSG00000167325_ENST00000300738|hu_mus|hu_hu_hu_mus_False|38_68 (ssRNA)
RNA: GGGAGUUCUACAGUCCGACGAUCGGCAUAGUCAGGGUGCUUCGUGGUCAAGGUCGCGGCUGUCUCAGCAGCCAAAGUGUCCAGUUCCACUGUGGUGACCCCACUGUAUAGGCCUUGGAUUACUUUCAUGGUGAUCUGAGCAGGCAACAGAGGAUUGAGCAUCA
B3: chr15:103030146:103030147:-_ENSMUSG00000009575_ENSMUST00000118152|mus_hu|FALSE|FALSE (ssRNA)
RNA: GGGAGUUCUACAGUCCGACGAUCUUUGUUUUCCGCAUCCUCAGGAUAUGCAUGCCAUGUCAGUCUCUCUUCAUAAAAUGCUAUCACAAUUUGUGGACAUUUCACAUUAGCUUCUUUUGCAAGAACCAGGUCAGCUUCAUCUGUCAACAGAGGAUUGAGCAUCA
B4: chr4:142145789:142145790:+_ENSG00000109445_ENST00000262990|hu_hu|motif|central (ssRNA)
RNA: GGGAGUUCUACAGUCCGACGAUCACACUGUGCACAAAUUGGUAACUUCUGUACAGAAUUACAAAAGUAGCAAAAUGCUCGGUUCUUCUGCCGCCUCUGACACUUGUCACAUUCCAUUGAGGCAUUACAUGGAUGUUUAGCUAACAACAGAGGAUUGAGCAUCA
B5: chr6:42629286:42629287:-_ENSMUSG00000036667_ENSMUST00000045054|mus_mus|motif|central (ssRNA)
RNA: GGGAGUUCUACAGUCCGACGAUCAAAUAAAACCUUAUGACCAGUUACAACUACCCGACCCCGGCCAUAGCGAGCUGCAGCGGUCACACAGCCAUGGUAGGUAUCUAGCCCCAAAGGAAAAGCCAAAGACCCAUGAACUAGUAGCAACAGAGGAUUGAGCAUCA
B6: 123779010_123779130_5566_3pUTR_ENSG00000139697_ENST00000420886|human|control|control (ssRNA)
RNA: GGGAGUUCUACAGUCCGACGAUCUGAGUCCCCGUCACAGACUACUUCUGAAGGUCACCAGUGAGGGCCUAAACAAGAGUCCACUUCUUGUUAGUAUAAUAACUUUUUAUUUGACAUCUACAAGAUUUUGGCAUCUUGCAGCUUCAACAGAGGAUUGAGCAUCA
B7: chr2:232597714:232597715:-_ENSG00000156973_ENST00000287600|hu_mus|motif|central (ssRNA)
RNA: GGGAGUUCUACAGUCCGACGAUCGAAAAGCCUCACUUUGGAUGUGCUGACAAGAAGAUCAUCGUCAAAGAACUUUGUCUCGGUGAUGACAUUGCCCGUUAGGACGCUGGCGGGCAUCAUCUGGGACUCAGGCGCUGCUUCUAUCAACAGAGGAUUGAGCAUCA
B8: chr1:58468927:58468928:-_ENSMUSG00000026034_ENSMUST00000148330|mus_mus|mus_mus_mus_hu_False|8_8 (ssRNA)
RNA: GGGAGUUCUACAGUCCGACGAUCAAUUACUGAAAAAGAUGUUCAUUACCUUAGCUAUGUACUUAAUGAACCAAAUUACCCAAACAAAAUAAACAUGGCAAUAUAAAAAUGUUAAGAAUUUACAAAGAUUAAAAGCUUAACUUACAACAGAGGAUUGAGCAUCA
B9: chr11:46405157:46405158:+_ENSG00000110492_ENST00000395566|hu_hu|hu_hu_hu_mus_False|1_48 (ssRNA)
RNA: GGGAGUUCUACAGUCCGACGAUCCCCUCCCCACUUUGGGCACUUGGUGUGGGCGUGAGAGGACAGGCGUGAUUGACAGAGCUGACAAGCAGACAGAAGGCACUGGUGGGUUAUAUCUUGGGCCUGUGGGAGAGGAGGCGUGGGCAACAGAGGAUUGAGCAUCA
B10: chr22:32879901:32879902:+_ENSG00000100225_ENST00000397426|hu_mus|hu_hu_hu_mus_False|18_108 (ssRNA)
RNA: GGGAGUUCUACAGUCCGACGAUCCUCUGCCAUAUGCAUGGCAUCCUGAAUUGACUCAGCUUCAACAUUUUGACUAGGCCCUUCCAUACUGUCAUCAGUCCAGGCAUCAAAUGGGGUUGCCUGUCCUUGGGAUGAAUCAGUCCCCAACAGAGGAUUGAGCAUCA
B11: chr6:142515020:142515021:-_ENSMUSG00000030247_ENSMUST00000032374|mus_hu|FALSE|FALSE (ssRNA)
RNA: GGGAGUUCUACAGUCCGACGAUCCCCUCCAAACCCAAUGGUAACUUGAACUUCAAUGGAGAAGAGAAAAGCAGAAGUGAAAGACCUGACAUUAGUCACACACACAGUGGACUCCAAACCACUUUUCUCCAUUCCACUUUUCUCCAACAGAGGAUUGAGCAUCA
B12: chr7:141438946:141438947:+_ENSG00000106028_ENST00000265304|hu_mus|hu_hu_hu_mus_True|1_28 (ssRNA)
RNA: GGGAGUUCUACAGUCCGACGAUCGACGAAAUACCUGUAACACAGGUCUUCGAAACAUGGCUUCUGUUUUUCUUACAACCUAAUCUUUAGGCUUUUCCUAAAGGAAAAACCCGAGCAAGAAAAAUGAUAAAUCAAGAACUUCCGCAACAGAGGAUUGAGCAUCA
B13: chr1:135197953:135197954:+_ENSMUSG00000041757_ENSMUST00000038295|mus_mus|motif|central (ssRNA)
RNA: GGGAGUUCUACAGUCCGACGAUCGAGCUGAUCCCAUCUACCAGUCUUUAAGGAGGAAGGGGCAGAUUUGGGGUGCUUGAACGGUGCAGAUAGGGGAUGUCAUGAAGGAGCACUUUCCAGAAGCCAGAGAGAGGCAAAAACAGGCAACAGAGGAUUGAGCAUCA
B14: chr12:66249844:66249845:-_ENSMUSG00000047534_ENSMUST00000052201|mus_hu|FALSE|FALSE (ssRNA)
RNA: GGGAGUUCUACAGUCCGACGAUCGGGAUGCCUAUUUGUCUUAUCAGAUCCUACUGCCUCAGUAAUUGGAAACUCUUUCCUAACACCAGACUUCUGAAGAGUUUCUUUGACGGAAGGUCUAGCUUUCUUUUGUUUGAUAUAAAACAACAGAGGAUUGAGCAUCA
B15: chr11:46405157:46405158:+_ENSG00000110492_ENST00000395566|hu_hu|hu_hu_hu_mus_False|1_68 (ssRNA)
RNA: GGGAGUUCUACAGUCCGACGAUCCCCUCCCCACUUUGGGCACUUGGUGUGGGCGUGAGAGGACAGGAUGAUUGAUUAGAGCUGACAGGAAGACAAAAGGCACUGGUGGGUUAUAUCUUGGGCCUGUGGGAGAGGAGGCGUGGGCAACAGAGGAUUGAGCAUCA
B16: chr4:76721835:76721836:+_ENSG00000138768_ENST00000264904|hu_mus|hu_hu_hu_mus_True|1_48 (ssRNA)
RNA: GGGAGUUCUACAGUCCGACGAUCGUUUGGCUGGGGUUUCUGAGACGCUCUGGAAUAUAACUCAUGUUUGCUAAUAAAUCCUAGUUUUCUAUGAAAUUUCUCUUUGCCAAUCCUCUUCUCUAUUAGUUGCUUUAGUUCUCUUUCCAACAGAGGAUUGAGCAUCA
B17: chr2:48026839:48026840:+_ENSG00000116062_ENST00000540021|hu_hu|hu_hu_hu_mus_False|8_68 (ssRNA)
RNA: GGGAGUUCUACAGUCCGACGAUCAUAGUGAGCCACUAGCGUCCUAAAUCUGGAACAGUGGCGGUCAUCUGAAAACUGGCCGAUGAAAAACUUGCCCAGUGAAGUGUCCACAAAGCAAACACCAUACGCACGAGUAUGACCAGACAACAGAGGAUUGAGCAUCA
B18: chr5:139724684:139724685:+_ENSMUSG00000036817_ENSMUST00000110883|mus_mus|motif|central (ssRNA)
RNA: GGGAGUUCUACAGUCCGACGAUCGCCUGGAAACCUGCCAGCCUAUCUGCUUCUUGACUUUAUGCAUUCAAGCAAAUCCCGGAGUCAAAAGGAGUGUCCGAGAAUCAUACAUUCAAAUGAAUUAAAAAAGCCUCCCCGGCUUUUCAACAGAGGAUUGAGCAUCA
B19: chr5:21408736:21408737:-_ENSMUSG00000042453_ENSMUST00000161356|mus_hu|mus_mus_mus_hu_False|28_48 (ssRNA)
RNA: GGGAGUUCUACAGUCCGACGAUCGUUGACAGAGUUGUAGAUGGUGGCUUCAUGGAACUGGAAAGGGGAGCAGCCAAUGCUGUUAGAAGAGGAAGGUAGGCACUGGGUCUGCACGAGCUGCCAGGAAUCCGAUCUUGCAUCCUUCAACAGAGGAUUGAGCAUCA
B20: chr11:10819154:10819155:-_ENSG00000110321_ENST00000525681|hu_mus|FALSE|FALSE (ssRNA)
RNA: GGGAGUUCUACAGUCCGACGAUCCUUAGGAUGUAAUUAUUGCAUGCUGCUAAUAUUCUAUCUAAACAUUAAGGAUACUCCUAAAGUAUUUGAUGGUAGACUAUGAUUAAGACAUCACACUACAAAAACCUUAUGCAGAAGGAACAACAGAGGAUUGAGCAUCA
B21: chr2:42509997:42509998:+_ENSG00000143924_ENST00000318522|hu_mus|hu_hu_hu_mus_True|68_88 (ssRNA)
RNA: GGGAGUUCUACAGUCCGACGAUCUCGCUGAGUCCUCUCCUCAUAAUUAAAUAGUACUACCACUGAGGCAAUGAAAUAAACUAUCUCCCCUGUGGGAAGCAGGUAUACAUUCGCUCUACAGUCCUUUCCUCGAUAACCGUAUACCAACAGAGGAUUGAGCAUCA
B22: chr14:53325254:53325255:-_ENSG00000073712_ENST00000341590|hu_mus|FALSE|FALSE (ssRNA)
RNA: GGGAGUUCUACAGUCCGACGAUCGACCACCUUGCAGUCUACUUCGGUACAGAUGAAGGACAACCGGACCUCAUCUGCAAACUCUACAGUGACCAUCUUGAUCUCCCAGUUGACAUUCCACUGCUUCAUGUUGCUGAACCGCCACAACAGAGGAUUGAGCAUCA

This is one part of the list.

The test has as its target T1, UNK ZnF1-3 (human, UniProt Q9C0B0 31-174).
T1 sequence: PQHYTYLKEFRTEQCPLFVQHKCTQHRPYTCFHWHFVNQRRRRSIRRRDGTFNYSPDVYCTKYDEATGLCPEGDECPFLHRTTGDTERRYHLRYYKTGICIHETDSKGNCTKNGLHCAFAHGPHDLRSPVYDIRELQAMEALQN
The test can be described thus: nsRBNS (natural sequence RNA bind-n-seq); RBNS binding buffer (assumed for nsRBNS): 25 mM Tris pH 7.5, 150 mM KCl, 3 mM MgCl2, 0.01% Triton X-100, 500 ug/ml BSA, 20 U/ml SUPERase-In, 4 C; UNK is unkempt and MSI1 is Musashi-1; names of the RNAs are library labels; protein concentration not given here; high values mean tight binding.
B1 came in with a binding signal of 0.576 enrichment R. The molecule B2 yielded a binding signal of 0.921 enrichment R. As for B3, the binding signal amounted to 0.779 enrichment R. Consider B4, for which the binding signal was found to be 0.945 enrichment R.

In the case of B5, the binding signal worked out at 1.03 enrichment R. For B6, the binding signal was 0.805 enrichment R. In turn, B7 came in with a binding signal of 0.985 enrichment R. The same measure for B8: 1.17 enrichment R. The result for B9 reads 3.02 enrichment R; that for B10, 0.786 enrichment R. The molecule B11 returned a binding signal of 0.882 enrichment R.

On to B12, for which the binding signal was found to be 0.657 enrichment R. The molecule B13 registered a binding signal of 2.39 enrichment R. As for B14, the binding signal turned out to be 0.732 enrichment R.

B15 came in with a binding signal of 2.17 enrichment R. The same measure for B16: 0.561 enrichment R; for B17: 1.08 enrichment R. As for B18, the binding signal was found to be 1.18 enrichment R. B19 returned a binding signal of 1.63 enrichment R.

B20: the binding signal came out at 0.935 enrichment R. The same measure for B21: 1.34 enrichment R. With B22, the binding signal came out at 0.822 enrichment R.

Values taken from paper PMC12136788.
